These results are taken from PubChem BioAssay (NCI).

Where a structure was tested more than once in an assay, its records may differ in their call.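 The endpoint reported here, percent growth, reads 100 for growth as untreated, 0 for no net growth and -100 for all cells dead.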 For part of its entries the source gives two or more results. The list is limited to them. How the source made its calls: active means growth percent below 10; inactive means the rest. There may be further records. The screen tested this drug many times, at the concentration stated with the values; one value stands for one run. Additions like (4×) say how often a value occurs here.

Holding throughout (experiment): NCI-60 one-dose screen, 48 h (100 = growth as untreated, 0 = no growth, -100 = all killed)
Test [1] concerns M14 melanoma. The settings on record: 2.5 mM; runs of 2000.
Test [2] has as its system HCT-15 colon. Conditions: 2.5 mM.
Test [3] concerns HT29 colon. The settings on record: 2.5 mM.

As to `O=c1[nH]cc(F)c(=O)[nH]1`, the growth result in test [1] is “active: 1.65, 1.9, 0.581, -49.2%”; in test [2] (runs of 1991), “active: 8.57, -13.9, -9.73, 5.33, 9.02, -7.72, 7.4, 5.32, -2.15, -40.2% and inactive: 15.4, 18.9, 10.8, 12 (2×), 99.3, 11%”; in test [2] (runs of 1992), “active: 6.07, 4.37, 4.95, 7.05, 7.36, 1.75, 9.75, 5.99, 8.69, -4.85, -77, -16.6, -14.7, 3.3, 0.891, 9.84, -40, 5.43, 3.79, 4.23, 9.77, 4.19, -11.7, -4.4, 6.23, -0.552, 4.45, -13.5, -3.36, 2.03, 9.95, -45.9, 8.43, -36.2, -7.91, 5.98, -24.7, -4.84, 4.87, 1.63, 6.72, -25.8, -10.9, 5.36, 1.65, 4.61, -13.8, -7.03, 5.77, 6.7, 4.66, 3.81, -11, 2.12, -28.5, -33.4, 0.0454, -13, 1.05, 6.06, 6.48, 6.55, 6.74, 5.86, 2.46, -27.6, 0.176, 1.86, -32.9, -42.9, -22.5, 9.28, 7.33, 7.89, 0.488, 6.49, -23.4, -1.78, -2.75, 2.09, 7.64, 7.22, 1.47, 0.997, 1.61% and inactive: 13.3, 12.3, 11.4 (2×), 34, 41.6, 36.7, 17.6, 18.2, 22.2, 24.8, 25.2, 17.8, 13.8, 14.5, 15.8, 18.3, 23.3, 20, 14.2, 16.8, 18.5, 16.5, 11 (2×), 10.1, 20.7, 18.4, 14.6, 10.7, 12.2, 34.4, 10.4, 18.1, 14.4%”; in test [2] (runs of 1993) it was “inactive: 11.8 (3×), 14.5, 10.1, 20.6, 11.4, 30 (2×), 11.5, 13.7, 11, 17.9, 24.1, 14.6, 13.2, 13.9, 11.7, 12.4, 20, 16.3, 15, 18.1, 27.1, 19.8, 17.2, 11.1, 20.3, 11.6, 13.1, 18.3% and active: 9.06, -0.851, 6.06, 6.37, 9.11, 5.88, 6.4, 9.42 (2×), 8.23, 8.84, 8.61, -2.24, 9.61, 5.58, 1.21, 1.91, -2.41%”; in test [2] (runs of 1994) it was “inactive: 20.9, 14 (2×), 18.1, 12.5, 15.6, 12.8, 23.3, 12.9, 20.3, 17.7, 11.5, 27.8, 21.7, 12.2, 15.1, 17.6, 13, 23.2, 12.7, 14.1% and active: 2.56, 8.74, 5.57, 1.06, 0.63, -12.2, 2.01, -21.7, -12.6, -0.316, 5.66, 4.35, 7.74%”; in test [2] (runs of 1995) it was “inactive: 14.6, 19.2, 16.8, 15, 18, 16.3, 39.6, 17.9, 19.3, 12.8, 11, 29, 13.4, 22.4, 13.5% and active: 7.05, 6.89, 3.41, 9.79, 5.37, 2.33, 1.76, 7.56, -20, -24.3, 0.211, 5.62, 7.35, -5.93, 8.41, 6.66, -5.82, 2, 3.49, 5.73, 1.87, -17.6%”. Also, the growth entry is “inactive: 12.9, 23.3 (2×), 14.6, 13.4, 15.9, 20.7, 17.4, 22.7, 14.4 (2×), 15.4, 12.7, 10.1 (2×), 10.9, 15.7, 13.6, 15.2, 18.8, 13.5, 24.5, 12.2, 14.5, 10, 11.7, 14.1% and active: 3.29, -10.3, 7.15, 7.07, 7.81, 9.92, -1.03, -62, 7.51, 9.91, 5.47, 7.19, 3.05, 6.53, -13.9, 3.38, 4.36, 9.26, 6.77, 6.14, 4.66, 5.19, 5.78, 1.15, 5.09, 1.67, 3.13, 7.78, 6.06, 5.65, 7.59, -4.52%” in test [2] (runs of 1996); “inactive: 14.1, 10.4, 12.6, 13.6, 11.4, 15.8, 12.9, 16.7, 17.9, 14.8, 22.2, 13.8, 24.1, 11.2, 13.2, 18.4, 12.4, 21.1, 13.7% and active: 4.78, -19.4, 7.23, 5.66, 1.96, -19.1, -32.6, -20, 8.15, -24.1, 7.42, 2.06, 7.92, 6.53, 9.71, 3.65, 8.97, -18.5, 6.76, 7.13, 3.69, 5.22, 8.04, 8.29, 3.98, 1.71, 3.36%” in test [2] (runs of 1997); “inactive: 11.2 (2×), 20.2, 15.8, 13 (2×), 25.9, 13.1, 13.2 (2×), 14, 15.6, 14.2, 17.9, 17.7, 22.4, 11.7, 12, 18.8, 13.5, 17.2% and active: 2.68, -2.48, -16.8, 5.2, 6.09, 7.36%” in test [2] (runs of 1998); “inactive: 27.1%, 11.8%, 10.7% and active: 9.08, -2.67, -13.8, -100, -26.9, 0.802, -79.2, 3.83, 3.38, -67.2, -13.3, -90.1, 0.221, -7.5, 2.05%” in test [2] (runs of 1999); “active: -24.6, 2.32, 0.88, 0.127%” in test [2] (runs of 2000); “inactive: 110, 11.8, 15.4 (2×), 16.6, 11.5, 16.7, 13.7, 12.7, 11.2% and active: 9.77, 5.99, -44.8, -2.05, 8.47, 3.84, 4.17, 5.58, 2.85, 7.29%” in test [3] (runs of 1991). For the same compound, the growth entry is “inactive: 12.2, 10.2, 16.2, 13.2, 20.7, 17.2, 14.9, 23.6, 13.5 (2×), 22.3, 13.9 (3×), 39.2, 16.3 (2×), 15.8 (3×), 14.8 (3×), 15.2, 15.7, 18.8, 19.5, 10.4 (2×), 11.8 (2×), 21.2, 12.6, 25.7, 19.8, 13, 14.6, 86.6, 19.4 (2×), 14.2, 18.5, 26.7, 17 (2×), 17.6, 12.5 (2×), 13.8, 20, 10.8, 20.4, 12.7 (2×), 11.5, 16.4, 21.4, 11.7, 15.4, 11.3, 10, 20.9, 17.9, 11.6, 23.4, 16.7, 12.3, 31.9, 15.3% and active: 6.59, 2.47 (2×), 5.25, 7.81, 6.96, 5.79, 9.87, 7.24, 7.32, -16.4, -8.07, 8.64, 9.07, 8.17, 8.71, 6.63, 9.44, 8.41, 8.01, 9.81, -2.54, 6.26, 8.4, 1.42, -15.8, 3.58, 7.7, -1.47, 7.84, 5.86, 5.46, 8.67, 8.44, 4.22, 9.86, 7.43, 6.85, 4.98, 9.78, 7.53, 5.22, 0.145, 2.75, 8.3, 8.51, 6.82, 6.87, 8.45, 8.63, 7.8, 6.88%” in test [3] (runs of 1992); “active: 5.65 (2×), 8.66, -20.1, 7.65, 0.342, 7.29, 1.71, 9.6, 5.97, 9.18, 8.6, -3.64, 9.53, 9.13, 7.49, 8.99, 8.37% and inactive: 16.8, 12.4, 18.6, 20.9 (2×), 11.5, 13.2 (2×), 13, 25.7, 15.1 (2×), 14.9 (2×), 10.5, 18.1, 13.7, 20.7, 15.3, 15.8, 14.5, 16.4, 92.8, 25, 77.2, 25.1, 11.1, 21.2, 14%” in test [3] (runs of 1993); “inactive: 14.1 (3×), 16.5, 17.7, 13.2, 15.4, 11.3, 16.4, 19.6, 15.1, 19.9, 15.8, 19, 18.9, 15.6, 17.1, 14.7, 16.7% (2×) and active: 2.02, 5.54, 4.98, 7.87, -13.5, 7.04, 6.51, 8.99, 9.16, 9.88, 8.64%” in test [3] (runs of 1994).
